By IC50 is meant the dose at which the fit gives 50% viability; where the fit passes the top or lowest dose, that dose stands as a limit. The AUC spans the tested range (256-fold, ending at the top dose) of the same fit; values near 1 show little effect. A top dose marked as inferred was calculated from the reported fits.
How the values were obtained:
Test in all cases: Viability of human cancer cell lines after 72 h of drug (GDSC screen)
[1] = compound: Cn1cncc1[C@@](N)(c1ccc(Cl)cc1)c1ccc2c(c1)c(-c1cccc(Cl)c1)cc(=O)n2C [Tipifarnib]; settings: top dose 16 µM; top dose inferred
Method: (§1)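 Human cancer cell lines in 384-well plates, medium with 10% serum, drug for 72 h over a 256-fold dose range (nine 2-fold or five 4-fold steps up to the top dose). Adherent lines were fixed and stained with the nucleic acid dye Syto60, suspension lines read with resazurin; signal relative to control wells, capped at 0 and 100%. One two-parameter sigmoid per drug and line, fitted in a mixed model over all curves with the slope shared within a line.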

[2] = compound: CCc1cc(Nc2nccc(-c3c(-c4ccc(OC)c(C(=O)Nc5c(F)cccc5F)c4)nc4ccccn34)n2)c(OC)cc1N1CCC(N2CCN(S(C)(=O)=O)CC2)CC1 [GSK-1904529A]; settings: top dose 1.024 µM; top dose inferred
Method: as §1

[3] = compound: COc1cc(C)c(Sc2cnc(NC(=O)c3ccc(CNC(C)C(C)(C)C)cc3)s2)cc1C(=O)N1CCN(C(C)=O)CC1 [BMS-509744]; settings: top dose 10.24 µM; top dose inferred
Method: as §1

[4] = compound: CCN1CCN(Cc2ccc(NC(=O)c3ccc(C)c(Oc4ccnc5[nH]ccc45)c3)cc2C(F)(F)F)CC1 [NG-25]; settings: top dose 10.24 µM; top dose inferred
Method: as §1

[5] = compound: COc1ccccc1S(=O)(=O)Nc1ccc2c(c1)CN(C)C(=O)N2 [PFI-1]; settings: top dose 10 µM; top dose inferred
Method: as §1

TGBC1TKB (biliary tract, adherent)
AUC [1]: 0.881
IC50 [1]: > 16 µM
AUC [2]: 0.988
IC50 [2]: > 1020 nM
AUC [3]: 0.908
IC50 [3]: > 10.2 µM
AUC [4]: 0.859
IC50 [4]: 8.37 µM
AUC [5]: 0.962
IC50 [5]: > 10 µM

TGBC24TKB (biliary tract, adherent)
AUC [1]: 0.779
IC50 [1]: 6.1 µM
AUC [2]: 0.983
IC50 [2]: > 1020 nM
AUC [3]: 0.882
IC50 [3]: 9.67 µM
AUC [4]: 0.927
IC50 [4]: > 10.2 µM
AUC [5]: 0.861
IC50 [5]: 7.56 µM

TGW (neuroblastoma, adherent)
AUC [1]: 0.847
IC50 [1]: 9.39 µM
AUC [2]: 0.992
IC50 [2]: > 1020 nM
AUC [3]: 0.911
IC50 [3]: > 10.2 µM
AUC [4]: 0.801
IC50 [4]: 4.21 µM
AUC [5]: 0.975
IC50 [5]: > 10 µM

THP-1 (acute myeloid leukaemia, suspension)
AUC [1]: 0.963
IC50 [1]: > 16 µM
AUC [2]: 0.991
IC50 [2]: > 1020 nM
AUC [3]: 0.963
IC50 [3]: > 10.2 µM
AUC [4]: 0.839
IC50 [4]: 5.99 µM
AUC [5]: 0.884
IC50 [5]: 8.92 µM

TK10 (kidney, adherent)
AUC [1]: 0.721
IC50 [1]: 4.88 µM
AUC [2]: 0.974
IC50 [2]: > 1020 nM
AUC [3]: 0.928
IC50 [3]: > 10.2 µM
AUC [4]: 0.74
IC50 [4]: 3.66 µM
AUC [5]: 0.879
IC50 [5]: > 10 µM

TUR (B-cell lymphoma, suspension)
AUC [1]: 0.484
IC50 [1]: 0.906 µM
AUC [2]: 0.985
IC50 [2]: > 1020 nM
AUC [3]: 0.983
IC50 [3]: > 10.2 µM
AUC [4]: 0.85
IC50 [4]: 6.88 µM
AUC [5]: 0.835
IC50 [5]: 5.86 µM

U-87-MG (glioma, adherent)
AUC [1]: 0.97
IC50 [1]: > 16 µM
AUC [2]: 0.985
IC50 [2]: > 1020 nM
AUC [3]: 0.958
IC50 [3]: > 10.2 µM
AUC [4]: 0.882
IC50 [4]: > 10.2 µM
AUC [5]: 0.901
IC50 [5]: > 10 µM

U-698-M (B-cell leukaemia, suspension)
AUC [1]: 0.709
IC50 [1]: 3.89 µM
AUC [2]: 0.954
IC50 [2]: > 1020 nM
AUC [3]: 0.945
IC50 [3]: > 10.2 µM
AUC [4]: 0.714
IC50 [4]: 2.57 µM
AUC [5]: 0.941
IC50 [5]: > 10 µM

UACC-257 (melanoma, adherent)
AUC [1]: 0.842
IC50 [1]: 15.4 µM
AUC [2]: 0.972
IC50 [2]: > 1020 nM
AUC [3]: 0.837
IC50 [3]: 9.44 µM
AUC [4]: 0.768
IC50 [4]: 4.77 µM
AUC [5]: 0.88
IC50 [5]: > 10 µM

VA-ES-BJ (soft tissue, adherent)
AUC [1]: 0.604
IC50 [1]: 1.96 µM
AUC [2]: 0.985
IC50 [2]: > 1020 nM
AUC [3]: 0.923
IC50 [3]: > 10.2 µM
AUC [4]: 0.87
IC50 [4]: > 10.2 µM
AUC [5]: 0.618
IC50 [5]: 1.34 µM

VCaP (prostate, adherent)
AUC [1]: 0.671
IC50 [1]: 3.06 µM
AUC [2]: 0.955
IC50 [2]: > 1020 nM
AUC [3]: 0.799
IC50 [3]: 5.13 µM
AUC [4]: 0.987
IC50 [4]: > 10.2 µM
AUC [5]: 0.821
IC50 [5]: 6.06 µM

WIL2-NS (lymphoid neoplasm, suspension)
AUC [1]: 0.761
IC50 [1]: 4.71 µM
AUC [2]: 0.992
IC50 [2]: > 1020 nM
AUC [3]: 0.934
IC50 [3]: > 10.2 µM
AUC [4]: 0.808
IC50 [4]: 4.15 µM
AUC [5]: 0.825
IC50 [5]: 4.58 µM

WSU-DLCL2 (B-cell lymphoma, suspension)
AUC [1]: 0.906
IC50 [1]: 15.2 µM
AUC [2]: 0.993
IC50 [2]: > 1020 nM
AUC [3]: 0.993
IC50 [3]: > 10.2 µM
AUC [4]: 0.931
IC50 [4]: > 10.2 µM
AUC [5]: 0.892
IC50 [5]: 8.27 µM

WSU-NHL (lymphoid neoplasm, suspension)
AUC [1]: 0.738
IC50 [1]: 4.33 µM
AUC [2]: 0.989
IC50 [2]: > 1020 nM
AUC [3]: 0.978
IC50 [3]: > 10.2 µM
AUC [4]: 0.864
IC50 [4]: 7.22 µM
AUC [5]: 0.803
IC50 [5]: 4.27 µM

YT (lymphoid neoplasm, suspension)
AUC [1]: 0.559
IC50 [1]: 1.41 µM
AUC [2]: 0.989
IC50 [2]: > 1020 nM
AUC [3]: 0.935
IC50 [3]: > 10.2 µM
AUC [4]: 0.671
IC50 [4]: 1.76 µM
AUC [5]: 0.973
IC50 [5]: > 10 µM

no-10 (glioma, adherent)
AUC [1]: 0.817
IC50 [1]: 11.6 µM
AUC [2]: 0.929
IC50 [2]: > 1020 nM
AUC [3]: 0.889
IC50 [3]: > 10.2 µM
AUC [4]: 0.968
IC50 [4]: > 10.2 µM
AUC [5]: 0.864
IC50 [5]: > 10 µM

no-11 (glioma, adherent)
AUC [1]: 0.707
IC50 [1]: 4.48 µM
AUC [2]: 0.937
IC50 [2]: > 1020 nM
AUC [3]: 0.861
IC50 [3]: > 10.2 µM
AUC [4]: 0.884
IC50 [4]: > 10.2 µM
AUC [5]: 0.926
IC50 [5]: > 10 µM
